Experimental data as given in the supplement of paper PMC12632987.
Whole data set: some 1,800 sequences, median “median log2 fold change of GCK-ALFA target abundance (FLAG IP / Myc IP barcode read proportion)” near 0.14, cut for the lowest 2% near -0.84. This is one part of the list.

T1: TRAF2, Q12933
T1 chain: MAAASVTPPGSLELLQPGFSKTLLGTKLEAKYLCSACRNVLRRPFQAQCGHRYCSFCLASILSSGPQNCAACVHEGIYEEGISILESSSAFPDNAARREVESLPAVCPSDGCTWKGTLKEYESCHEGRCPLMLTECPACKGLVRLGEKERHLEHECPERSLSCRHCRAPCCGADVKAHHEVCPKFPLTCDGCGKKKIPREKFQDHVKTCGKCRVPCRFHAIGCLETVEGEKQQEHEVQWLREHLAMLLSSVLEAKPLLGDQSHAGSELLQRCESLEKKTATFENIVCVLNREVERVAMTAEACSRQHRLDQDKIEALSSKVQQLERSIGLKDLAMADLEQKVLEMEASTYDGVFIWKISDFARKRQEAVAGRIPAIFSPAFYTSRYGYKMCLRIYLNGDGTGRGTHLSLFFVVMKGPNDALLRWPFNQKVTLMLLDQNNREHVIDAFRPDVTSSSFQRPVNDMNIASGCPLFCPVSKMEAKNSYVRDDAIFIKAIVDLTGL

B1: traf2_out_13_95_1045 (protein)
chain: SKELAEKIMEISDEMLDKVLELLEKAKEEAKDDPEAVKVFDEAKRLALTRGINEAIHLLEEAKKAHPEHKELFDRTIKELREIRREAGRKVAELIKEEKE
B2: traf2_out_20_3_2132 (protein)
chain: EELKKELEKEIEKAIKLLKEAAKLADPERAKELEKLIKKLKESEKLPLSDQLVVLSEIRREVLRMAEEARKEGKEELAKVLEEAADAINKAMNLLMKLIE
B3: traf2_out_13_95_1185 (protein)
chain: EKEKTEKLRKETNAIADRLIDRAEELAKRIEEETGRPEFRDRILRALRRGGVRAAVHLIRELAEEHPEHREVFERAAAELEAAIREAGREVAKIEKEIEE
B4: traf2_out_11_79_929 (protein)
chain: SELREELRRLLEEARRLLEELIEKMKAGKISPEEWRRMLEEILRLLQRAAQLALELGLSDVLVHISEARRHVLLAEDGDLEQLEEALRHVEEALRELERE
B5: traf2_out_11_169_794 (protein)
chain: EEQEKNREINDFALELNDEAKERLKEFALELAKEAGLDVAAVEAIFEANKNASLSAVAAALIEWFKSQGAEEAAKKVEEKYEELKEEINKKATEKIKELE
B6: traf2_out_17_162_1607 (protein)
chain: EELEKEIKELEEKLKKLREELKRLKEKLKRIDELSKEELTDLLVEASEARREALEALERIEELKEKLDKELYEKLSKEFEKLAEEFQRIANEFYKKLEEK
B7: traf2_out_17_162_1575 (protein)
chain: EELEKRLEELKKRLEELEKELEEFKKKLPDIPKMSYEELTDLLVEVSEKKREARELAEEIRELGEKLGSEELRELAERAERLAEEFNRIANKIYKEIEKK
B8: traf2_out_16_104_1389 (protein)
chain: SAATDAAFAAIIAELEKIAEEAQKLANEIYKLYEKASEEKKTELSDLLVEVSELKREALEAAEAARAARAAGGDVAEAQAALERLKKKLKELKEKLKELK

Target: T1, TRAF2, Q12933
Assay: median log2 fold change of GCK-ALFA target abundance (FLAG IP / Myc IP barcode read proportion) (log2 ratio); each designed protein is fused to an ALFA-tag nanobody in HEK293 cells to bring the named protein to FLAG-tagged glucokinase (GCK); Myc marks an untargeted standard; higher = target protein stabilised (more abundant)
Details: target protein: 3xFLAG-MCP-GCK-ALFA reporter; HEK293 landing pad (RPLP)
Procedure, shortened: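 The readout is target abundance, the per-binder median log2 ratio of FLAG to Myc barcode read proportions. It came from HEK293 landing-pad cells carrying a recombined ALFA-nanobody-fused binder library, induced with 2 μg mL^−1 doxycycline and transfected with a plasmid for a FLAG-tagged target and a Myc-tagged standard. After 48 h, lysates were immunoprecipitated with anti-FLAG and anti-Myc, and circular RNA barcodes were reverse transcribed, amplified and sequenced. Each barcode needed a proportion of at least 10^−7 in both replicates and each binder at least 3 barcodes per replicate, a pseudocount of 10^−6 was added, and the replicates were pooled.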

| Binder | median log2 fold change |
| --- | --- |
| B1 | -0.493 |
| B2 | 0.365 |
| B3 | 0.0827 |
| B4 | -0.224 |
| B5 | 0.568 |
| B6 | 0.299 |
| B7 | 0.308 |
| B8 | 0.342 |
